Some of the results follow. Many values rest on one well or one pass, so single values are uncertain.
Key:
Assay in all cases: cell count relative to DMSO control; melanoma cells; higher = more viable cells
Details in all cases: library dose: low library concentration; 72 h
WM115 = system: WM115
WM1716 = system: WM1716
WM1745 = system: WM1745
WM3526 = system: WM3526
WM3619 = system: WM3619
WM451Lu = system: WM451Lu
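Note: cell number obtained by counting DAPI-stained nuclei in high-throughput microscope images with image analysis software, screen run in 1,536-well plates.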

SMILES | cell count (WM115) | cell count (WM1716) | cell count (WM1745) | cell count (WM3526) | cell count (WM3619) | cell count (WM451Lu)
Cc1cn(-c2cc(NC(=O)c3ccc(C)c(Nc4nccc(-c5cccnc5)n4)c3)cc(C(F)(F)F)c2)cn1 [nilotinib] + COc1cc2c(Oc3ccc4[nH]c(C)cc4c3F)ncnc2cc1OCCCN1CCCC1 [cediranib] (first compound 0.2 µM, partner dose 0.4 µM) | 116% | 97.7% | 84% | 116% | 76% | 94.4%
Cc1cn(-c2cc(NC(=O)c3ccc(C)c(Nc4nccc(-c5cccnc5)n4)c3)cc(C(F)(F)F)c2)cn1 [nilotinib] + Cn1cnc2c(F)c(Nc3ccc(Br)cc3Cl)c(C(=O)NOCCO)cc21 [selumetinib] (first compound 0.2 µM, partner dose 0.015 µM) | 85.9% | 111% | 86% | 100% | 84.3% | 118%
CC(C)C[C@H](NC(=O)[C@H](Cc1ccccc1)NC(=O)c1cnccn1)B(O)O [Bortezomib] + Cc1nc(Nc2ncc(C(=O)Nc3c(C)cccc3Cl)s2)cc(N2CCN(CCO)CC2)n1 [dasatanib] (first compound 0.001 µM, partner dose 0.004 µM) | 83% | 34.5% | 68.4% | 71.4% | 15.1% | 32.3%
Cc1cn(-c2cc(NC(=O)c3ccc(C)c(Nc4nccc(-c5cccnc5)n4)c3)cc(C(F)(F)F)c2)cn1 [nilotinib] + O=S(=O)(c1ccccc1)N(CC(F)(F)F)c1ccc(C(O)(C(F)(F)F)C(F)(F)F)cc1 [T0901317] (first compound 0.2 µM, partner dose 1.4 µM) | 104% | 100% | 75.3% | 81.7% | 92.3% | 101%
CC(C)C[C@H](NC(=O)[C@H](Cc1ccccc1)NC(=O)c1cnccn1)B(O)O [Bortezomib] + NC(=O)Nc1cc(-c2cccc(F)c2)sc1C(=O)N[C@H]1CCCNC1 [AZD7762] (first compound 0.001 µM, partner dose 0.02 µM) | 93.7% | 35.4% | 95.8% | 88.5% | 24.5% | 89%
Cn1c(=O)n(-c2ccc(C(C)(C)C#N)cc2)c2c3cc(-c4cnc5ccccc5c4)ccc3ncc21 + COc1cc2ncnc(Nc3ccc(Oc4ccccc4)cc3)c2cc1OC [SrcI1] (first compound 0.004 µM, partner dose 2 µM) | 88.3% | 70.7% | 94% | 78.8% | 74.8% | 96.8%
Cc1cn(-c2cc(NC(=O)c3ccc(C)c(Nc4nccc(-c5cccnc5)n4)c3)cc(C(F)(F)F)c2)cn1 [nilotinib] + CNC(=O)c1cc(Oc2ccc(NC(=O)Nc3ccc(Cl)c(C(F)(F)F)c3)cc2)ccn1 [sorafenib] (first compound 0.2 µM, partner dose 0.4 µM) | 106% | 84.6% | 94.3% | 103% | 109% | 101%
Cc1cn(-c2cc(NC(=O)c3ccc(C)c(Nc4nccc(-c5cccnc5)n4)c3)cc(C(F)(F)F)c2)cn1 [nilotinib] + OCc1c[nH]c2ccccc12 [Indole-3-carbinol] (first compound 0.2 µM, partner dose 0.8 µM) | 121% | 106% | 84.6% | 111% | 94% | 112%
Cc1cc(Nc2cc(N3CCN(C)CC3)nc(/C=C/c3ccccc3)n2)n[nH]1 + Nc1ccn([C@@H]2O[C@H](CO)[C@@H](O)C2(F)F)c(=O)n1 [gemcitabine] (first compound 0.04 µM, partner dose 0.0004 µM) | 109% | 113% | 86.8% | 100% | 72.6% | 109%
Cn1c(=O)n(-c2ccc(C(C)(C)C#N)cc2)c2c3cc(-c4cnc5ccccc5c4)ccc3ncc21 + Cc1cc(N2CCOCC2)cc2[nH]c(-c3c(NC[C@@H](O)c4cccc(Cl)c4)cc[nH]c3=O)nc12 [BMS536924] (first compound 0.004 µM, partner dose 0.2 µM) | 108% | 71.7% | 80.8% | 94% | 97.4% | 93.2%
COc1ccc(C2=N[C@@H](c3ccc(Cl)cc3)[C@@H](c3ccc(Cl)cc3)N2C(=O)N2CCNC(=O)C2)c(OC(C)C)c1 [Nutlin-3] + COc1ccc(-c2ccc3c(N4CCOCC4)nc(N4C[C@@H](C)O[C@@H](C)C4)nc3n2)cc1CO [KU0063794] (first compound 0.1 µM, partner dose 0.02 µM) | 75.7% | 89% | 94.9% | 84.8% | 78.2% | 92.9%
COc1ccc(C2=N[C@@H](c3ccc(Cl)cc3)[C@@H](c3ccc(Cl)cc3)N2C(=O)N2CCNC(=O)C2)c(OC(C)C)c1 [Nutlin-3] + NCC(=O)Nc1ccc(-n2nc(C(F)(F)F)cc2-c2ccc3c(ccc4ccccc43)c2)cc1 [OSU03012] (first compound 0.1 µM, partner dose 1 µM) | 76.9% | 85.1% | 93.5% | 52% | 110% | 61.8%
Cc1cc(Nc2cc(N3CCN(C)CC3)nc(/C=C/c3ccccc3)n2)n[nH]1 + COc1cc(Nc2ncc(F)c(Nc3ccc4c(n3)NC(=O)C(C)(C)O4)n2)cc(OC)c1OC [Tamatinib] (first compound 0.04 µM, partner dose 0.4 µM) | 90.4% | 102% | 76.8% | 99.9% | 90.1% | 82.7%
Cc1cc(Nc2cc(N3CCN(C)CC3)nc(/C=C/c3ccccc3)n2)n[nH]1 + O=c1cc(-c2cccc3c2Sc2ccccc2S3)oc(N2CCOCC2)c1 [KU55933] (first compound 0.04 µM, partner dose 1 µM) | 91.2% | 106% | 98.6% | 101% | 102% | 100%
Cn1c(=O)n(-c2ccc(C(C)(C)C#N)cc2)c2c3cc(-c4cnc5ccccc5c4)ccc3ncc21 + Nc1nc(F)nc2c1ncn2[C@@H]1O[C@H](CO)[C@@H](O)[C@@H]1O [fludarabine] (first compound 0.004 µM, partner dose 0.2 µM) | 90.1% | 84.2% | 96.4% | 36% | 81.5% | 64.4%
Cc1cn(-c2cc(NC(=O)c3ccc(C)c(Nc4nccc(-c5cccnc5)n4)c3)cc(C(F)(F)F)c2)cn1 [nilotinib] + Cc1nc(Nc2ncc(C(=O)Nc3c(C)cccc3Cl)s2)cc(N2CCN(CCO)CC2)n1 [dasatanib] (first compound 0.2 µM, partner dose 0.004 µM) | 85.1% | 98.6% | 75.8% | 97% | 99.9% | 96.4%
Cc1cc(Nc2cc(N3CCN(C)CC3)nc(/C=C/c3ccccc3)n2)n[nH]1 + COc1ccc2c(c1)CCC1C2CCC2(C)C(NCCCCCCN3C(=O)C=CC3=O)CCC12 [U73122] (first compound 0.04 µM, partner dose 0.4 µM) | 93.5% | 85.7% | 107% | 87.2% | 77.9% | 88%
COc1ccc(C2=N[C@@H](c3ccc(Cl)cc3)[C@@H](c3ccc(Cl)cc3)N2C(=O)N2CCNC(=O)C2)c(OC(C)C)c1 [Nutlin-3] + COc1cc2c(Oc3ccc4[nH]c(C)cc4c3F)ncnc2cc1OCCCN1CCCC1 [cediranib] (first compound 0.1 µM, partner dose 0.4 µM) | 84.9% | 97.6% | 90.9% | 92.8% | 97.6% | 129%
COc1ccc(C2=N[C@@H](c3ccc(Cl)cc3)[C@@H](c3ccc(Cl)cc3)N2C(=O)N2CCNC(=O)C2)c(OC(C)C)c1 [Nutlin-3] + CC(C)(C)c1cnc(CSc2cnc(NC(=O)C3CCNCC3)s2)o1 [SNS-032] (first compound 0.1 µM, partner dose 0.01 µM) | 82.2% | 78% | 84.5% | 120% | 87.3% | 74.9%
Cc1cn(-c2cc(NC(=O)c3ccc(C)c(Nc4nccc(-c5cccnc5)n4)c3)cc(C(F)(F)F)c2)cn1 [nilotinib] + COc1ccc2c(c1)CCC1C2CCC2(C)C(NCCCCCCN3C(=O)C=CC3=O)CCC12 [U73122] (first compound 0.2 µM, partner dose 0.4 µM) | 96.3% | 82.5% | 77.2% | 111% | 122% | 105%
CC(C)C[C@H](NC(=O)[C@H](Cc1ccccc1)NC(=O)c1cnccn1)B(O)O [Bortezomib] + Cn1cc(/C=C2\C(=O)Nc3cccnc32)c2ccccc21 [GW441756] (first compound 0.001 µM, partner dose 0.4 µM) | 103% | 25.2% | 58.5% | 88.9% | 17.6% | 81.1%
Cc1cc(Nc2cc(N3CCN(C)CC3)nc(/C=C/c3ccccc3)n2)n[nH]1 + COc1cc2ncnc(Nc3ccc(Oc4ccccc4)cc3)c2cc1OC [SrcI1] (first compound 0.04 µM, partner dose 2 µM) | 94.2% | 119% | 85.5% | 85.8% | 98.2% | 110%
CC(C)C[C@H](NC(=O)[C@H](Cc1ccccc1)NC(=O)c1cnccn1)B(O)O [Bortezomib] + O=C(O)[C@@H]1[O][Sb](=[O])([O][Sb]2(=[O])[O][C@H]([C@H](O)CO)[C@H](O)[C@H](C(=O)O)[O]2)[O][C@H]([C@H](O)CO)[C@@H]1O [stibogluconate] (first compound 0.001 µM, partner dose 2 µM) | 115% | 49.7% | 86.6% | 87.9% | 39.1% | 105%
Cc1cn(-c2cc(NC(=O)c3ccc(C)c(Nc4nccc(-c5cccnc5)n4)c3)cc(C(F)(F)F)c2)cn1 [nilotinib] + CN(NC(=O)CC(=O)NN(C)C(=S)c1ccccc1)C(=S)c1ccccc1 [STA4783] (first compound 0.2 µM, partner dose 0.006 µM) | 92.1% | 67% | 46.1% | 90.8% | 61.3% | 78.2%

Reference: the supplement of paper PMC4604168 (melanoma cell lines)
